# The supplement of paper PMC12230231
# ± gives the standard deviation of the averaged measurements. Restriction of a single-cycle SIVsab GFP reporter by TRIM5α v1-loop variants in CRFK cells. Human variants: read share among cells still uninfected after two challenges over input, higher = gained restriction. Rhesus variants: share among infected cells over input, higher = lost restriction. Reporter dose not given per row. No active / inactive call per row; the paper calls a change when both replicates lie above its controls (mean + 2 SD of stop or wild-type variants, or the top frameshift score). Residues outside the varied loop are taken from Swiss-Prot. The paper reads the human single-substitution scores as noise; they and the rhesus combinations repeat poorly (rank correlation 0.3 to 0.4), indel scores repeat only for the top variants, rhesus substitutions well (0.9).
# Tested on: SIVsab (simian immunodeficiency virus of sabaeus monkeys), single-cycle GFP reporter, in CRFK cells
# Experiment: enrichment among uninfected cells over input (fold); higher = stronger restriction
# Conditions: library: human / rhesus combinations
# Method: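 Pools of CRFK cells expressing variants of the TRIM5α v1 loop were challenged with the single-cycle reporter, sorted by GFP and sequenced; mean of two replicates.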
row,Sequence,enrichment
1,"MASGILVNVKEEVTCPICLELLTQPLSLDCGHSFCQACLTANHKKSMLDKGESSCPVCRISYQPENIRPNRHVANIVEKLREVKLSPEGQKVDHCARHGEKLLLFCQEDGKVICWLCERSQEHRGHHTFLTEEVAREYQVKLQAALEMLRQKQQEAEELEADIREEKASWKTQIQYDKTNVLADFEQLRDILDWEESNELQNLEKEEEDILKSLTNSETEMVQQTQSLRELISDLEHRLQGSVMELLQGVDGVIKRTENVTLKKPETFPKNQRRVFRAPDLKGMLEVFRELTDVRRYWVDVTVAPNNISCAVISEDKRQVSSPKPQIIYGAPGTRFQTLVNFNYCTGILGSQSITSGKHYWEVDVSKKTAWILGVCAGFQPDAMCNIEKNENYQPKYGYWVIGLEEGVKCSAFQDSSFHTPSVPFIVPLSVIICPDRVGVFLDYEACTVSFFNITNHGFLIYKFSHCSFSQPVFPYLNPRKCGVPMTLCSPSS [human TRIM5α, 330-340 = GAPGTRFQTLV]",0.00361 ± 0.0015
2,"MASGILVNVKEEVTCPICLELLTQPLSLDCGHSFCQACLTANHKKSMLDKGESSCPVCRISYQPENIRPNRHVANIVEKLREVKLSPEGQKVDHCARHGEKLLLFCQEDGKVICWLCERSQEHRGHHTFLTEEVAREYQVKLQAALEMLRQKQQEAEELEADIREEKASWKTQIQYDKTNVLADFEQLRDILDWEESNELQNLEKEEEDILKSLTNSETEMVQQTQSLRELISDLEHRLQGSVMELLQGVDGVIKRTENVTLKKPETFPKNQRRVFRAPDLKGMLEVFRELTDVRRYWVDVTVAPNNISCAVISEDKRQVSSPKPQIIYGARGTLYTFQSLVNFNYCTGILGSQSITSGKHYWEVDVSKKTAWILGVCAGFQPDAMCNIEKNENYQPKYGYWVIGLEEGVKCSAFQDSSFHTPSVPFIVPLSVIICPDRVGVFLDYEACTVSFFNITNHGFLIYKFSHCSFSQPVFPYLNPRKCGVPMTLCSPSS [human TRIM5α, 330-340 = GARGTLYTFQSLV]",0.145 ± 0.033
3,"MASGILVNVKEEVTCPICLELLTQPLSLDCGHSFCQACLTANHKKSMLDKGESSCPVCRISYQPENIRPNRHVANIVEKLREVKLSPEGQKVDHCARHGEKLLLFCQEDGKVICWLCERSQEHRGHHTFLTEEVAREYQVKLQAALEMLRQKQQEAEELEADIREEKASWKTQIQYDKTNVLADFEQLRDILDWEESNELQNLEKEEEDILKSLTNSETEMVQQTQSLRELISDLEHRLQGSVMELLQGVDGVIKRTENVTLKKPETFPKNQRRVFRAPDLKGMLEVFRELTDVRRYWVDVTVAPNNISCAVISEDKRQVSSPKPQIIYGAPGTLFTFPSFTNFNYCTGILGSQSITSGKHYWEVDVSKKTAWILGVCAGFQPDAMCNIEKNENYQPKYGYWVIGLEEGVKCSAFQDSSFHTPSVPFIVPLSVIICPDRVGVFLDYEACTVSFFNITNHGFLIYKFSHCSFSQPVFPYLNPRKCGVPMTLCSPSS [human TRIM5α, 330-340 = GAPGTLFTFPSFT]",33.7 ± 12
4,"MASGILVNVKEEVTCPICLELLTQPLSLDCGHSFCQACLTANHKKSMLDKGESSCPVCRISYQPENIRPNRHVANIVEKLREVKLSPEGQKVDHCARHGEKLLLFCQEDGKVICWLCERSQEHRGHHTFLTEEVAREYQVKLQAALEMLRQKQQEAEELEADIREEKASWKTQIQYDKTNVLADFEQLRDILDWEESNELQNLEKEEEDILKSLTNSETEMVQQTQSLRELISDLEHRLQGSVMELLQGVDGVIKRTENVTLKKPETFPKNQRRVFRAPDLKGMLEVFRELTDVRRYWVDVTVAPNNISCAVISEDKRQVSSPKPQIIYGAPGTRFTFPTFVNFNYCTGILGSQSITSGKHYWEVDVSKKTAWILGVCAGFQPDAMCNIEKNENYQPKYGYWVIGLEEGVKCSAFQDSSFHTPSVPFIVPLSVIICPDRVGVFLDYEACTVSFFNITNHGFLIYKFSHCSFSQPVFPYLNPRKCGVPMTLCSPSS [human TRIM5α, 330-340 = GAPGTRFTFPTFV]",0.246 ± 0.012

# Same assay, conditions: library: insertions and deletions
row,Sequence,enrichment
1,"MASGILVNVKEEVTCPICLELLTQPLSLDCGHSFCQACLTANHKKSMLDKGESSCPVCRISYQPENIRPNRHVANIVEKLREVKLSPEGQKVDHCARHGEKLLLFCQEDGKVICWLCERSQEHRGHHTFLTEEVAREYQVKLQAALEMLRQKQQEAEELEADIREEKASWKTQIQYDKTNVLADFEQLRDILDWEESNELQNLEKEEEDILKSLTNSETEMVQQTQSLRELISDLEHRLQGSVMELLQGVDGVIKRTENVTLKKPETFPKNQRRVFRAPDLKGMLEVFRELTDVRRYWVDVTVAPNNISCAVISEDKRQVSSPKPQIIYIYGARGTRYQTFVNFNYCTGILGSQSITSGKHYWEVDVSKKTAWILGVCAGFQPDAMCNIEKNENYQPKYGYWVIGLEEGVKCSAFQDSSFHTPSVPFIVPLSVIICPDRVGVFLDYEACTVSFFNITNHGFLIYKFSHCSFSQPVFPYLNPRKCGVPMTLCSPSS [human TRIM5α, 2-codon duplication at 328]",1.11 ± 0.24
2,"MASGILVNVKEEVTCPICLELLTQPLSLDCGHSFCQACLTANHKKSMLDKGESSCPVCRISYQPENIRPNRHVANIVEKLREVKLSPEGQKVDHCARHGEKLLLFCQEDGKVICWLCERSQEHRGHHTFLTEEVAREYQVKLQAALEMLRQKQQEAEELEADIREEKASWKTQIQYDKTNVLADFEQLRDILDWEESNELQNLEKEEEDILKSLTNSETEMVQQTQSLRELISDLEHRLQGSVMELLQGVDGVIKRTENVTLKKPETFPKNQRRVFRAPDLKGMLEVFRELTDVRRYWVDVTVAPNNISCAVISEDKRQVSSPKPQIIYGARGTRYQTFVNFNYCTGNFNYCTGILGSQSITSGKHYWEVDVSKKTAWILGVCAGFQPDAMCNIEKNENYQPKYGYWVIGLEEGVKCSAFQDSSFHTPSVPFIVPLSVIICPDRVGVFLDYEACTVSFFNITNHGFLIYKFSHCSFSQPVFPYLNPRKCGVPMTLCSPSS [human TRIM5α, 7-codon duplication at 341]",0.301 ± 0.15
3,"MASGILVNVKEEVTCPICLELLTQPLSLDCGHSFCQACLTANHKKSMLDKGESSCPVCRISYQPENIRPNRHVANIVEKLREVKLSPEGQKVDHCARHGEKLLLFCQEDGKVICWLCERSQEHRGHHTFLTEEVAREYQVKLQAALEMLRQKQQEAEELEADIREEKASWKTQIQYDKTNVLADFEQLRDILDWEESNELQNLEKEEEDILKSLTNSETEMVQQTQSLRELISDLEHRLQGSVMELLQGVDGVIKRTENVTLKKPETFPKNQRRVFRAPDLKGMLEVFRELTDVRRYWVDVTVAPNNISCAVISEDKRQVSSPKPQIIYGARGTRYQTFVYQTFVNFNYCTGILGSQSITSGKHYWEVDVSKKTAWILGVCAGFQPDAMCNIEKNENYQPKYGYWVIGLEEGVKCSAFQDSSFHTPSVPFIVPLSVIICPDRVGVFLDYEACTVSFFNITNHGFLIYKFSHCSFSQPVFPYLNPRKCGVPMTLCSPSS [human TRIM5α, 5-codon duplication at 336]",0.485 ± 0.29
4,"MASGILVNVKEEVTCPICLELLTQPLSLDCGHSFCQACLTANHKKSMLDKGESSCPVCRISYQPENIRPNRHVANIVEKLREVKLSPEGQKVDHCARHGEKLLLFCQEDGKVICWLCERSQEHRGHHTFLTEEVAREYQVKLQAALEMLRQKQQEAEELEADIREEKASWKTQIQYDKTNVLADFEQLRDILDWEESNELQNLEKEEEDILKSLTNSETEMVQQTQSLRELISDLEHRLQGSVMELLQGVDGVIKRTENVTLKKPETFPKNQRRVFRAPDLKGMLEVFRELTDVRRYWVDVTVAPNNISCAVISEDKRQVSSPKPQIIYGARGTRYQTFNYCTGILGSQSITSGKHYWEVDVSKKTAWILGVCAGFQPDAMCNIEKNENYQPKYGYWVIGLEEGVKCSAFQDSSFHTPSVPFIVPLSVIICPDRVGVFLDYEACTVSFFNITNHGFLIYKFSHCSFSQPVFPYLNPRKCGVPMTLCSPSS [human TRIM5α, 3-codon deletion at 340]",0.958 ± 0.55
